Test results taken from the antibiotic and cytotoxicity screens of Wong et al. (2023).
The list shows a part of the results.

Key:
[1] = system: HSkMC (human skeletal muscle cells); assay: cytotoxicity call (relative viability < 0.9); settings: 10 µM
[2] = system: HepG2; assay: cytotoxicity call (relative viability < 0.9); settings: 10 µM
[3] = system: S. aureus RN4220; assay: growth inhibition call (relative growth <= 0.2); settings: 50 µM

Compound | cytotoxicity call [1] | cytotoxicity call [2] | growth inhibition call [3]
CN(C)c1cc(NC(=O)CNC(C)(C)C)c(O)c2c1C[C@H]1C[C@H]3[C@H](N(C)C)C(=O)C(C(N)=O)=C(O)[C@@]3(O)C(=O)[C@H]1C2=O | inactive | inactive | inactive
CCCN(C)C[C@H]1OCCCC[C@H](C)Oc2ccc(NC(=O)Nc3ccc4c(c3)OCO4)cc2C(=O)N([C@@H](C)CO)C[C@@H]1C | inactive | inactive | inactive
Cc1c(C)n2c3c(=O)n(C)c(=O)n(C)c3nc2n1CCO | inactive | inactive | inactive
Cc1noc(C)c1NC(=O)Nc1ccc2c(c1)C(=O)N([C@@H](C)CO)C[C@H](C)[C@@H](CN(C)Cc1ccc(C(F)(F)F)cc1)OCCCC[C@@H](C)O2 | inactive | inactive | inactive
Cc1noc(C)c1S(=O)(=O)N(C)C[C@H]1Oc2c(NC(=O)C3CC3)cccc2C(=O)N([C@@H](C)CO)C[C@H]1C | inactive | inactive | inactive
C=CCOC(=O)[C@@H]1[C@H]2C(=O)O[C@H](c3ccccc3)[C@H](c3ccccc3)N2[C@H](c2ccc(OCCOC(=O)[C@@H]3C[C@@H]4C(=O)N[C@@H](Cc5ccccc5)C(=O)N4[C@@H]3c3ccc(O)cc3)cc2)[C@@]12C(=O)Nc1ccccc12 | inactive | inactive | inactive
COc1ccccc1NC(=O)N(C)C[C@H]1Oc2ncc(Br)cc2C(=O)N([C@@H](C)CO)C[C@H]1C | inactive | inactive | inactive
COC(=O)C1=C[C@@H](O)[C@@H](O)[C@H](O[C@@H]2O[C@H](COC(=O)/C=C/c3ccccc3)[C@@H](O)[C@H](O)[C@H]2O)C1 | inactive | inactive | inactive
C[C@H]1CCCCO[C@@H](CN(C)C(=O)c2ccncc2)[C@@H](C)CN([C@@H](C)CO)C(=O)c2cc(NS(C)(=O)=O)ccc2O1 | inactive | inactive | inactive
C[C@H]1CN([C@@H](C)CO)C(=O)Cc2cc(NC(=O)Nc3ccc4c(c3)OCO4)ccc2O[C@H]1CN(C)Cc1ccc(-c2ccccc2)cc1 | inactive | inactive | inactive
O=CNC(=O)c1ccccc1C(=O)O | inactive | inactive | inactive
C[C@@H]1CN([C@H](C)CO)C(=O)c2cc(NC(=O)CCCN(C)C)ccc2O[C@@H](C)CCCCO[C@H]1CN(C)Cc1ccc(C(F)(F)F)cc1 | inactive | inactive | inactive
CS(=O)(=O)N1CCOC[C@]2(CN(c3ncccn3)CCO2)C1 | inactive | inactive | inactive
COCC(=O)Nc1ccc2c(c1)C(=O)N(C)C[C@@H](OC)[C@@H](C)CN(C(=O)c1ccccc1F)[C@H](C)CO2 | inactive | inactive | inactive
C[C@H](CO)N1C[C@H](C)[C@@H](CN(C)Cc2ccc(C(F)(F)F)cc2)Oc2c(NC(=O)c3nc4ccccc4s3)cccc2C1=O | inactive | inactive | inactive
C[C@H]1CN([C@@H](C)CO)C(=O)Cc2cc(NS(=O)(=O)c3ccc(Cl)cc3)ccc2O[C@H]1CN(C)C(=O)Nc1ccc(C(F)(F)F)cc1 | inactive | inactive | inactive
COc1ccc(S(=O)(=O)Nc2ccc3c(c2)C(=O)N([C@H](C)CO)C[C@@H](C)[C@@H](CN(C)C(=O)Nc2ccc(C(F)(F)F)cc2)OCCCC[C@@H](C)O3)cc1 | inactive | inactive | inactive
CO[C@H]1CN(C)C(=O)c2cc(NS(C)(=O)=O)ccc2OC[C@H](C)N(C(=O)C2CCCCC2)C[C@H]1C | inactive | inactive | inactive
COc1ccc(CN(C)C[C@H]2OCCCC[C@@H](C)Oc3ccc(NC(=O)C4CCCCC4)cc3C(=O)N([C@H](C)CO)C[C@H]2C)cc1 | inactive | inactive | inactive

Compound | cytotoxicity call [1] | cytotoxicity call [2] | growth inhibition call [3]
CNC[C@H]1Oc2cc(C#CCN(C)C)ccc2S(=O)(=O)N([C@@H](C)CO)C[C@@H]1C | inactive | inactive | inactive
CCS(=O)(=O)N1C[C@@H](C)[C@H](OC)CN(C)C(=O)c2cc(NS(=O)(=O)c3ccccc3C)ccc2OC[C@H]1C | inactive | inactive | inactive
C[C@@H]1CN([C@@H](C)CO)C(=O)c2cc(C#CCN(C)C)cnc2O[C@@H]1CN(C)S(=O)(=O)c1ccccc1 | inactive | inactive | inactive
O=C([O-])CCNC(=O)c1ccc(N=Nc2ccc(O)c(C(=O)[O-])c2)cc1.[Na+].[Na+] | inactive | inactive | inactive
CCCNC(=O)N1C[C@@H](O)COC[C@@H]2O[C@H](CC(=O)NCc3ccncn3)CC[C@H]21 | inactive | inactive | inactive
OCc1cc(O)c2c(O)c3c(O)cccc3c(O[C@@H]3O[C@H](CO)[C@@H](O)[C@H](O)[C@H]3O)c2c1 | inactive | active | inactive
Cc1csc(S(=O)(=O)N(CC(C)C)c2cc3c(cc2OCc2ccc(C(=O)O)cc2)CCC3)n1 | inactive | inactive | inactive
COc1cccc(S(=O)(=O)Nc2ccc3c(c2)[C@@H]2C[C@@H](CC(=O)NCc4cccc(F)c4)O[C@@H](CO)[C@@H]2O3)c1 | inactive | inactive | inactive
CCOCC(=O)Nc1cc(C)on1 | inactive | inactive | inactive
Cc1noc(C)c1NC(=O)N(C)C[C@@H]1Oc2ccc(NC(=O)C3CC3)cc2C(=O)N([C@H](C)CO)C[C@@H]1C | inactive | inactive | inactive
CO[C@@H]1CN(C)C(=O)c2ccc(NS(=O)(=O)c3cn(C)cn3)cc2OC[C@@H](C)N(CCC(F)(F)F)C[C@H]1C | inactive | inactive | inactive
C[C@@H]1CCCCO[C@@H](CN(C)Cc2ccccc2)[C@@H](C)CN([C@H](C)CO)C(=O)c2cc(NC(=O)Nc3ccccc3)ccc2O1 | inactive | inactive | inactive
C[C@@H]1CN([C@H](C)CO)S(=O)(=O)c2ccc(-c3cncnc3)cc2O[C@H]1CN(C)C(=O)NC1CCCC1 | inactive | inactive | inactive
Cn1cnc2c1c(=O)[nH]c(=O)n2C | inactive | inactive | inactive
CC(=O)NS(=O)(=O)c1ccccc1 | inactive | inactive | inactive
Cc1noc(C)c1NC(=O)N(C)C[C@H]1Oc2ccc(NC(=O)NC(C)C)cc2C(=O)N([C@@H](C)CO)C[C@@H]1C | inactive | inactive | inactive
C[C@@H]1CN([C@@H](C)CO)C(=O)Cc2cc(NC(=O)CCC(F)(F)F)ccc2O[C@@H]1CN(C)S(=O)(=O)c1cn(C)cn1 | inactive | inactive | inactive
COc1ccc(NC(=O)N(C)C[C@@H]2Oc3c(NC(=O)Nc4ccc(C(F)(F)F)cc4)cccc3C(=O)N([C@H](C)CO)C[C@@H]2C)cc1 | inactive | inactive | inactive
C[C@H](CO)N1C[C@H](C)[C@@H](CN(C)Cc2ccc(C(=O)O)cc2)Oc2c(NC(=O)c3ccc(-c4nccs4)cc3)cccc2C1=O | inactive | inactive | inactive

Compound | cytotoxicity call [1] | cytotoxicity call [2] | growth inhibition call [3]
C[C@@H]1CN([C@@H](C)CO)C(=O)c2cccc(NC(=O)Nc3ccc(F)cc3)c2O[C@H]1CN(C)Cc1ccc(C(F)(F)F)cc1 | inactive | inactive | inactive
CC(C)N(C)C(=O)c1cccc(NC(=O)c2ccncc2)c1OCCCN(C)Cc1ccc(Cl)cc1 | inactive | inactive | inactive
O=c1[nH]c(=O)n(C2CC(O)C(CO)O2)cc1C=CBr (stereo unspecified) | inactive | inactive | inactive
CC(=O)N1[C@@H]2c3ccc(-c4ccccc4)c(=O)n3C[C@H]1[C@H](CO)[C@H]2C(=O)NCCCN1CCOCC1 | inactive | inactive | inactive
O=C(C[C@H]1CC[C@H](NC(=O)c2cccnc2)[C@@H](CO)O1)NCCN1CCCCC1 | inactive | inactive | inactive
COC1CC2CCC(C)C(O)(O2)C(=O)C(=O)N2CCCCC2C(=O)OC(C(C)CC2CCC(O)C(OC)C2)CC(=O)C(C)C=C(C)C(O)C(OC)C(=O)C(C)CC(C)C=CC=CC=C1C (stereo unspecified) | inactive | inactive | inactive
COc1ccc([Si](C)(C)[C@H]2[C@H](CC(=O)N3Cc4ccccc4C[C@H]3CO)O[C@@]3(C(=O)N(Cc4cccc(N5CCCCC5=O)c4)c4ccccc43)[C@@H]2C)cc1 | inactive | inactive | inactive
CCCC(=O)Nc1ccc2c(c1)C(=O)N(C)C[C@@H](OC)[C@@H](C)CN(S(=O)(=O)c1cn(C)cn1)[C@H](C)CO2 | inactive | inactive | inactive
CC(C)N1C(=O)CNC1=S | inactive | inactive | inactive
CCS(=O)(=O)Nc1ccc2c(c1)C(=O)N(C)[C@H]1CC[C@H](CC(=O)NCCCN3CCOCC3)O[C@@H]1CO2 | inactive | inactive | inactive
C[C@@H]1CN([C@H](C)CO)C(=O)Cc2cc(NC(=O)Nc3ccc(C(F)(F)F)cc3)ccc2O[C@H]1CN(C)C(=O)NC1CCCCC1 | inactive | inactive | inactive
C[C@@H]1CN([C@@H](C)CO)C(=O)c2cccc(NC(=O)c3cnccn3)c2O[C@@H]1CN(C)S(=O)(=O)c1cn(C)cn1 | inactive | inactive | inactive
Cn1c(C(=O)N[C@H](CO)Cc2c[nH]c3ccccc23)cc(=O)n(C)c1=O | inactive | inactive | inactive
O=C(CCCCCCC(=O)Nc1ccc([C@H]2O[C@@H](CSc3nc4ccccc4o3)C[C@H](c3ccccc3)O2)cc1)NO | inactive | active | inactive
O=C([O-])c1ccccc1O.[Na+] | inactive | inactive | inactive
C[C@@H]1CCCCO[C@@H](CN(C)C(=O)c2ccccc2)[C@H](C)CN([C@H](C)CO)C(=O)c2cc(NC(=O)NC3CCCCC3)ccc2O1 | inactive | inactive | inactive
C[C@@H]1CN([C@@H](C)CO)S(=O)(=O)c2ccc(C#CC3CC3)cc2O[C@H]1CN(C)C(=O)C1CCCCC1 | inactive | inactive | inactive
CC(C)NC(=O)N(C)C[C@H]1Oc2ccc(NC(=O)CCN3CCOCC3)cc2CC(=O)N([C@H](C)CO)C[C@@H]1C | inactive | inactive | inactive
COc1ccc(NC(=O)Nc2cccc3c2O[C@@H](CN(C)Cc2ccc(C(F)(F)F)cc2)[C@@H](C)CN([C@H](C)CO)C3=O)cc1 | inactive | inactive | inactive
